Laboratory results published in PubChem BioAssay AID686979 (National Center for Advancing Translational Sciences (NCATS), 2013).
Among all 420,000 compounds or so, about 50,000 (12%) were called active. This list was built around the results that the source calls inconclusive (neither active nor inactive); the mix of calls is not that of the screen. The call rests on the fitted dose curve; in most records, active means well fitted inhibition curve with a large enough effect; inconclusive means small, poorly fitted or top-dose-only effect; inactive means flat fitted curve, though single readings scatter. Potencies of inconclusive entries are left out as doubtful fits.
On the % scale 0 is the no-effect control and ±100 the full control effect; potency means the concentration at half of the fitted maximal effect; tags describe the fitted curve by direction and shape.

Test: qHTS for Inhibitors of human tyrosyl-DNA phosphodiesterase 1 (TDP1): qHTS in cells in presence of CPT; further: nearly all actives have a fitted effect of over 55% in size
Conditions: chicken DT40 Tdp1-/-;hTDP1 cells + 20 nM CPT, ATP luminescence, 48 h; activity change, negative = growth inhibition: at 46.2 µM (top of the series) unless noted
How it was run: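 Cell growth measured by CellTiter-Glo luminescence after a minimum 48 h, 37 C compound exposure with 20 nM CPT in Tdp1-knockout DT40 cells stably expressing hTDP1, seeded 400/well; qHTS titration format.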
With O=C(NCCCN1CCC(Cc2ccccc2)CC1)c1ccc2nc(N3CCOCC3)sc2c1 the Potency was inconclusive [inhibitor, single point].
For CC1CCN(C(=O)Cn2cc(SCC(=O)NCc3ccc(F)cc3)c3ccccc32)CC1, the Potency was inconclusive [inhibitor, single point].
In the case of CCCCOC(=O)Nc1sc2nc(C)cc(C)c2c1-n1cccc1, the activity change, negative = growth inhibition is reported as inconclusive: -32.7% [inhibitor].
With COc1ccc(CN2CCNC(=O)C2CC(=O)N(C)Cc2ccon2)cc1OC (centres undefined) the “activity change, negative = growth inhibition” value was inactive: -0.756%.
For Cc1onc(-c2ccccc2)c1C(=O)Nc1ccc(Cl)cn1, the Potency was inconclusive [inhibitor, single point].
With N#Cc1cccc(NC(=O)COC(=O)C2CCC2)c1 the “activity change, negative = growth inhibition” value was inactive: 0.914%.
With O=C(NCc1ccc2c(c1)OCO2)c1ccc(CS(=O)(=O)Cc2cccc(Cl)c2)o1 the Potency was inconclusive [inhibitor, single point].
In the case of COc1ccc(/C=N/N=C2/NC(=O)C(CC(=O)O)S2)cc1OCc1ccc(Cl)cc1Cl (centres undefined), the “activity change, negative = growth inhibition” value is reported as inactive: 0.568%.
In the case of Cc1ccc(C(=O)N2CCN(S(=O)(=O)c3ccccc3)CC2)s1, the “activity change, negative = growth inhibition” value is reported as inactive: -11%.
For COc1cccc(C(NC(C)=O)c2nc(-c3ccc(F)cc3OC)cs2)c1 (centres undefined), the Potency was inconclusive [inhibitor, single point].
With COc1ccc(C(CNc2nc(-c3cccnc3)nc3ccccc23)N(C)C)cc1 (centres undefined) the Potency was inconclusive [inhibitor, single point].
For CN(C)C(=O)CCc1ccc2c3c([nH]c2c1)[C@]1(CCc2ccccc2)[C@@H](C(=O)N2CCCCC2)C[C@H](CC(=O)NCCc2ccccn2)C(=O)N1CC3, the Potency was inconclusive [inhibitor, single point].
With Cc1ccc(NS(=O)(=O)c2ccc(C(=O)NCc3cccnc3)cc2)cc1 the Potency was inconclusive [inhibitor, partial curve, poor fit].
For COc1ccccc1N1CCN(c2nc(N)c(C#N)c(CC#N)c2C#N)CC1, the Potency was inconclusive [inhibitor, single point].
In the case of COc1ccc(CCNC(=O)C2CCN(C(=O)c3ccc(F)cc3)CC2)cc1, the Potency is reported as inconclusive [inhibitor, single point].
With COCCCNC(=O)c1c(NC(=O)Cc2coc3cc(C)ccc23)sc2c1CCCC2 the Potency was active: 16.4 µM.
For O=C(NCc1ccccn1)c1ccc(Cl)c(S(=O)(=O)N2CCCCCC2)c1, the Potency was inconclusive [inhibitor, single point].
For CC1(C)Cc2c(cnn2-c2ccccc2)-c2c1c1ccccc1n2CC(O)CCl (centres undefined), the Potency was inconclusive [inhibitor, partial curve].
In the case of CCC(Sc1nc2cc3c(cc2c(=O)n1Cc1ccco1)OCO3)C(=O)Nc1ccccc1OC (centres undefined), the Potency is reported as active: 8.2 µM.
With CC1(C)N=C(N)N=C(N)N1c1ccc(OCCCOc2ccccc2)c(Cl)c1 the Potency was active: 1.84 µM.
With Cc1cccc(C)c1NC(=O)C(c1ccccc1)N1CCN(c2ccc(F)cc2)CC1 (centres undefined) the Potency was inconclusive [inhibitor, single point].
For Cn1nnnc1NN=Cc1ccccc1, the “activity change, negative = growth inhibition” value was inactive: 1.66%.
For COC(=O)c1ccc(OC(=O)CCS(=O)(=O)c2ccc(C)cc2)cc1, the “activity change, negative = growth inhibition” value was inactive: 1.69%.
With CCOc1ccc(NS(=O)(=O)c2ccc(OC)c(C)c2)cc1 the Potency was inconclusive [inhibitor, single point].
For Cn1c(=O)c2cc(C(=O)NCCCN3CCN(c4ccc(F)cc4)CC3)sc2c2ccccc21, the Potency was inconclusive [inhibitor, single point].
With CCOC(=O)C1(Cc2cccc(F)c2)CCN(C(=O)COC)CC1 the “activity change, negative = growth inhibition” value was inactive: -21.5%.
In the case of Cc1ccc(C(=O)NCC(=O)N2CCN(c3ccccc3O)CC2)s1, the “activity change, negative = growth inhibition” value is reported as inactive: -3.04%.
For COc1ccc(NC(=O)CSc2nc3ccccc3nc2N2CCOCC2)c(OC)c1, the Potency was inconclusive [inhibitor, single point].
In the case of CC(C)CN(C(=O)CN(C)CC(=O)Nc1ccc(Cl)c(C(F)(F)F)c1)c1c(N)n(CC(C)C)c(=O)[nH]c1=O, the Potency is reported as inconclusive [inhibitor, single point].
In the case of CCCC(CNC(=O)COC(=O)C1=NNC(=O)CC1)c1ccc(Cl)cc1Cl (centres undefined), the “activity change, negative = growth inhibition” value is reported as inactive: 1.78%.
With O=[N+]([O-])c1cc(-c2nc(-c3ccccc3)no2)ccc1NCc1ccco1 the activity change, negative = growth inhibition was inconclusive: -35.1% [inhibitor].
In the case of CCNC(=S)N=Nc1c(O)n(Cc2ccc(Cl)cc2)c2ccccc12, the Potency is reported as active: 16.4 µM.
For CCOC(=O)Cn1c(CN(C)Cc2ccccc2)nc2c1c(=O)n(C)c(=O)n2C, the Potency was active: 9.2 µM.
With C[C@@H](CN1C2=NC[C@H](Cc3ccccc3)N2C[C@H]1Cc1ccc(O)cc1)NC(=O)CCC1CCCCC1 the Potency was active: 7.31 µM.
For CCCc1nc2c(C)ccc(C)c2c(N)c1CC, the Potency was inconclusive [inhibitor, partial curve, poor fit].
In the case of Cc1onc(-c2ccccc2)c1CNS(=O)(=O)c1ccc(F)cc1F, the Potency is reported as inconclusive [inhibitor, single point].
In the case of COC(=O)c1ccc2nc(C3CCCCC3)c(Cc3cccc(F)c3)n2c1, the Potency is reported as inconclusive [inhibitor, single point].
With COc1cccc(C2C(C(=O)c3ccc(C)o3)=C(O)C(=O)N2c2cc(C)on2)c1 (centres undefined) the Potency was active: 23.1 µM.
With COc1ccc(Cn2c(SCC(=O)N3CCN(c4ccc(F)cc4)CC3)nc3ccccc32)cc1 the Potency was active: 20.6 µM.
In the case of CCn1c(SCC(=O)n2nc(C)cc2C)nnc1-c1ccc2c(c1)OCO2, the “activity change, negative = growth inhibition” value is reported as inactive: 3.94%.
In the case of Cn1c(=O)n(C)c2cc(NS(=O)(=O)c3ccc(Br)s3)ccc21, the Potency is reported as inconclusive [inhibitor, single point].
For Cc1cccn2c(=O)nc(SCC(=O)N3N=C(c4cccs4)CC3c3ccc(F)cc3)nc12 (centres undefined), the Potency was inconclusive [inhibitor, single point].
In the case of CC(C)Cc1nc2sc3c(c2c(=O)n1N)CC(C)(C)OC3, the Potency is reported as active: 18.4 µM.
In the case of Cc1ccc(C2CC(=O)N(Cc3ccc(F)cc3)c3c2c(C)nn3-c2nc(C)cc(C)n2)cc1 (centres undefined), the Potency is reported as inconclusive [inhibitor, single point].
